Sequences and labels used below:
T1: IL-2Rβ (CD122) (UniProt P14784 27-240, limits assumed)
T1 construct: also called IL-2R beta; IL-2 receptor beta
T1 sequence (looked up): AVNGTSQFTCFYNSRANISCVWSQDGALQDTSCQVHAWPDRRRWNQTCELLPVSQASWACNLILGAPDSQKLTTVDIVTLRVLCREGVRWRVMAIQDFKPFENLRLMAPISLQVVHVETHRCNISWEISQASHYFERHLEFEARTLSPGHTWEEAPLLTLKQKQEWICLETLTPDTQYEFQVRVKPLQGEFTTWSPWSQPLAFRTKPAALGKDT

B1: Molecule P1 (Fc fusion)
chain: ITCPPPMSVEHADIWVKSYSLYSRERYICNSGFKRKAGTSSLTECVLNKATNVAHWTTPSLKCIRDPANVTESGCKECEELEEKNIKEFLQSFVHIVQMFINTSGGGGSNWVNVISDLKKIEDLIQSMHIDATLYTESDVHPSCKVTAMKCFLLELQVISLESGDASIHDTVENLIILANNSLSSNGGGGGS[letters of human IgG1 Fc omitted]
notes: also called IL15Rα-S/IL15 DS1
B2: Molecule W1 (Fc fusion)
chain: ITCPPPMSVEHADIWVKSYSLYSRERYICNSGFKRKAGTSSLTECVLNKATNVAHWTTPSLKCIRDPALVHQRTESGCKECEELEEKNIKEFLQSFVHIVQMFINTSGGGGSNWVNVISDLKKIEDLIQSMHIDATLYTESDVHPSCKVTAMKCFLLELQVISLESGDASIHDTVENLIILANNSLSSNGNV[letters of human IgG1 Fc omitted]
notes: also called Molecule R1 w/o 2nd G4S
B3: Molecule X1 (Fc fusion)
chain: ITCPPPMSVEHADIWVKSYSLYSRERYICNSGFKRKAGTSSLTECVLNKATNVAHWTTPSLKCIRDPALVHQRTESGCKECEELEEKNIKEFLQSFVHIVQMFINTSGGGGSNWVNVISDLKKIEDLIQSMHIDATLYTESDVHPSCKVTAMKCFLLELQVISLESGDASIHDTVENLIILANNSLSSNGNV[letters of human IgG1 Fc with changes omitted]
notes: also called Molecule W1 w/ EFL3
B4: Molecule N1 (Fc fusion)
chain: ITCPPPMSVEHADIWVKSYSLYSRERYICNSGFKRKAGTSSLTECVLNKATNVAHWTTPSLKCIRDPALVHQRPAPPSNVTESGCKECEELEEKNIKEFLQSFVHIVQMFINTSGGGGSNWVNVISDLKKIEDLIQSMHIDATLYTESDVHPSCKVTAMKCFLLELQVISLESGDASIHDTVENLIILANNSLSSNGGGGGS[letters of human IgG1 Fc omitted]
notes: Single-chain IL-15Rα sushi / IL-15 C-term / IL-15 N-term / IgG1 Fc fusion, expressed in HEK293T cells; also called IL15Rα-L/IL15 DS1
B5: Molecule O1 (Fc fusion)
chain: ITCPPPMSVEHADIWVKSYSLYSRERYICNSGFKRKAGTSSLTECVLNKATNVAHWTTPSLKCIRDPALVHQRPAPPSNVTESGCKECEELEEKNIKEFLQSFVHIVQMFINTSGGGGSNWVNVISDLKKIEDLIQSMHIDATLYTESDVHPSCKVTAMKCFLLELQVISLESGDASIHDTVENLIILANNSLSSNGGGGGS[letters of human IgG1 Fc with changes omitted]
notes: also called Molecule N1 w/ EFL1
B6: Molecule R1 (Fc fusion)
chain: ITCPPPMSVEHADIWVKSYSLYSRERYICNSGFKRKAGTSSLTECVLNKATNVAHWTTPSLKCIRDPALVHQRTESGCKECEELEEKNIKEFLQSFVHIVQMFINTSGGGGSNWVNVISDLKKIEDLIQSMHIDATLYTESDVHPSCKVTAMKCFLLELQVISLESGDASIHDTVENLIILANNSLSSNGNVGGGGS[letters of human IgG1 Fc omitted]
notes: also called IL15Rα-M/IL15 DS2
B7: Molecule S1 (Fc fusion)
chain: B6 chain with N184D
notes: also called Molecule R1 w/ N72D
B8: Molecule Q1 (Fc fusion)
chain: ITCPPPMSVEHADIWVKSYSLYSRERYICNSGFKRKAGTSSLTECVLNKATNVAHWTTPSLKCIRDPALVHQRPAPPSTESGCKECEELEEKNIKEFLQSFVHIVQMFINTSGGGGSNWVNVISDLKKIEDLIQSMHIDATLYTESDVHPSCKVTAMKCFLLELQVISLESGDASIHDTVENLIILANNSLSSNGNVGGGGS[letters of human IgG1 Fc omitted]
notes: also called IL15Rα-L/IL15 DS2

For 8 molecules, Kd results are on record in patent US20250250313A1 (REMEGEN, published 2025).

Residue numbers refer to the chain shown, from its start. In names and notes the source's numbering stands.

The Kd is the constant that tells how readily two partners part at equilibrium.

The target in the experiment is T1, IL-2Rβ (CD122). Kind of experiment: SPR (Biacore). The text has this:
Surface plasmon resonance (SPR; Biacore system) was used to measure the dissociation constant (KD) between the IL-15/IL-15Rα-Fc fusion protein and IL-2Rβ. KD values represent a quantitative measurement of receptor affinity for the target ligand, where a lower KD value represents a higher affinity of the receptor (i.e., IL-2Rβ) for the target ligand (i.e., IL-15/IL-15Rα-Fc).
Molecule B1 showed a Kd of 2.84 nM.
Consider B2, for which binding was put at a Kd of 3.42 nM.
The molecule B3 returned a Kd of 3.23 nM.
With B4, the Kd was determined as 3.08 nM.
The figure for B5 is 3.15 nM; for B6 it is 2.85 nM; for B7 it is 0.6 nM.
The figure for B8 is 2.65 nM.
